Measurements reported in the supplement of paper PMC8821664.
Counter-ions that a name gives are not always drawn. The list shows a part of the results. Many values rest on one well or one pass, so single values are uncertain. Positions of bridges follow the written chain, without caps; N, C: chain ends. Non-standard residues stand in square brackets, D forms with d. Residues, ends and D or L forms follow the SMILES beside them. *: point of attachment. Ileψ(thiazoline)Cys = CC[C@H](C)[C@H](N)C1=N[C@H](C(=O)*)CS1; dOrn = NCCC[C@@H](N)C(=O)O

Test system: Beas-2B AQP5-HiBiT reporter cells
Test: AQP5-HiBiT luminescence relative to vehicle (ratio to vehicle); higher = higher AQP5-HiBiT protein abundance
Settings: 10 µM; 18 h
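Further: monoclonal Beas-2B line stably carrying CMV promoter-driven AQP5-HiBiT, 5,000 cells per well in 384-well plates, lytic HiBiT plus LgBiT NanoLuc luminescence, FDA-approved drug library screen.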

SMILES	AQP5-HiBiT luminescence
N=C(N)N [Guanidine hydrochloride]	0.806
O=C1O[C@H](CO)[C@@H](O)[C@H](O)[C@H]1O [Delta-Gluconolactone]	0.853
CC1=C(C(=O)O)N2C(=O)[C@@H](NC(=O)[C@H](N)c3ccccc3)[C@H]2SC1 [Cephalexin]	0.977
Cc1ccc(-c2cc(C(F)(F)F)nn2-c2ccc(S(N)(=O)=O)cc2)cc1 [Celecoxib]	0.969
Nc1ncnc2c1ncn2[C@@H]1O[C@H](CO)[C@@H](O)[C@H]1O [Adenosine]	0.774
COC(=O)C1=C(C)NC(C)=C(C(=O)OC(C)C)C1c1cccc2nonc12 (stereo not given) [Isradipine]	0.557
CN1CCCCC1CCN1c2ccccc2Sc2ccc([S+](C)[O-])cc21 (stereo not given) [Mesoridazine Besylate]	1.93
Nc1nnc(-c2cccc(Cl)c2Cl)c(N)n1 [Lamotrigine]	1.33
Nc1nc(=O)[nH]cc1F [Fluorocytosine]	0.778
C[C@@H](c1nc(-c2ccc(C#N)cc2)cs1)[C@](O)(Cn1cncn1)c1cc(F)ccc1F [Isavuconazole]	0.693
C[C@H](CS)C(=O)N1CCC[C@H]1C(=O)O [Captopril]	0.994
NC[C@@H]1O[C@H](O[C@H]2[C@@H](O)[C@H](O[C@@H]3[C@@H](O)[C@H](N)C[C@H](N)[C@H]3O[C@H]3O[C@H](CO)[C@@H](O)[C@H](O)[C@H]3N)O[C@@H]2CO)[C@H](N)[C@@H](O)[C@@H]1O [Paromomycin Sulfate]	0.853
COc1c(N2CCNC(C)C2)c(F)cc2c(=O)c(C(=O)O)cn(C3CC3)c12 (stereo not given)	0.872
Cc1ccc(O)c([C@H](CCN(C(C)C)C(C)C)c2ccccc2)c1 [Tolterodine tartrate]	1.22
CCCOc1ccc(C(=O)OCCN(CC)CC)cc1N [Proparacaine hydrochloride]	0.967
C=C[C@H]1CN2CC[C@H]1C[C@H]2[C@H](O)c1ccnc2ccc(OC)cc12 [Quinine]	1.06
CNCCCC1c2ccccc2C=Cc2ccccc21 [Protriptyline hydrochloride]	2.05
CCCCc1ncc(/C=C(\Cc2cccs2)C(=O)O)n1Cc1ccc(C(=O)O)cc1 [Eprosartan Mesylate]	1.37
CCn1cc(C(=O)O)c(=O)c2cc(F)c(N3CCNCC3)cc21 [Norfloxacin]	1.61
CNCC[C@@H](Oc1ccccc1C)c1ccccc1 [Atomoxetine hydrochloride]	0.756
COC(=O)C1=C(C)NC(C)=C(C(=O)OC)C1c1ccccc1[N+](=O)[O-] [Nifedipine]	1.19
Fc1ccc([C@@H]2CCNC[C@H]2COc2ccc3c(c2)OCO3)cc1 [Paroxetine hydrochloride]	1.03

SMILES	AQP5-HiBiT luminescence
NS(=O)(=O)c1cc2c(cc1Cl)N=C(CSCc1ccccc1)NS2(=O)=O [Benzthiazide]	1.14
CC1(C)S[C@@H]2[C@H](NC(=O)[C@H](N)c3ccc(O)cc3)C(=O)N2[C@H]1C(=O)O [Amoxicillin]	0.578
C[C@@H](O)[C@H]1C(=O)N2C(C(=O)O)=C(SCCNC=N)C[C@H]12 [Imipenem]	0.742
CCCc1nc2c(C)cc(-c3nc4ccccc4n3C)cc2n1Cc1ccc(-c2ccccc2C(=O)O)cc1 [Telmisartan]	1.27
CCCCC(=O)O[C@]1(C(=O)CO)[C@@H](C)C[C@H]2[C@@H]3CCC4=CC(=O)C=C[C@]4(C)[C@@]3(F)[C@@H](O)C[C@@]21C [Betamethasone 17-valerate]	0.938
O=c1ccc2ccc(OCCCCN3CCN(c4cccc5sccc45)CC3)cc2[nH]1 [Brexpiprazole]	1.14
O=c1n(CCCN2CCN(c3cccc(Cl)c3)CC2)nc2ccccn12 [Trazodone hydrochloride]	1.38
C[C@]12C=CC(=O)N[C@@H]1CC[C@@H]1[C@@H]2CC[C@]2(C)[C@@H](C(=O)Nc3cc(C(F)(F)F)ccc3C(F)(F)F)CC[C@@H]12 [Dutasteride]	0.962
Clc1ccc(COC(Cn2ccnc2)c2ccc(Cl)cc2Cl)cc1 (stereo not given) [Econazole nitrate]	0.47
Nc1nc(Cl)nc2c1ncn2[C@@H]1O[C@H](CO)[C@@H](O)[C@@H]1F [Clofarabine]	0.622
CCCCC(=O)N(Cc1ccc(-c2ccccc2-c2nnn[nH]2)cc1)[C@H](C(=O)O)C(C)C [Valsartan]	0.794
CC(C)(C(=O)c1cccnc1)c1cccnc1 [Metyrapone]	0.804
C[C@@H](O)[C@@H]1NC(=O)[C@H](CCCCN)NC(=O)[C@@H](Cc2c[nH]c3ccccc23)NC(=O)[C@H](Cc2ccccc2)NC(=O)[C@@H](NC(=O)[C@H](N)Cc2ccccc2)CSSC[C@@H](C(=O)N[C@H](CO)[C@@H](C)O)NC1=O [Octreotide Acetate]	1.01
O=C(c1ccc(OCCN2CCCCC2)cc1)c1c(-c2ccc(O)cc2)sc2cc(O)ccc12 [Raloxifene hydrochloride]	1.99
CC1(C)O[C@@H]2[C@@H](CO[C@@]3(COS(N)(=O)=O)OC(C)(C)O[C@@H]23)O1 [Topiramate]	0.594
OCCOCCN1CCN(C2=Nc3ccccc3Sc3ccccc32)CC1 [Quetiapine Fumarate]	1.12
CC(C)(C)c1cc(C(C)(C)C)c(NC(=O)c2c[nH]c3ccccc3c2=O)cc1O [Ivacaftor (VX-770)]	1.07
CO[C@@]1(NC(=O)CSCC#N)C(=O)N2C(C(=O)O)=C(CSc3nnnn3C)CS[C@@H]21 [Cefmetazole sodium]	1.36
COc1ccc(C(=O)CC(=O)c2ccc(C(C)(C)C)cc2)cc1 [Avobenzone]	0.764
Oc1ccc(O)cc1 [Hydroquinone]	1.09
COC(=O)N[C@H](C(=O)N[C@@H](Cc1ccccc1)[C@@H](O)CN(Cc1ccc(-c2ccccn2)cc1)NC(=O)[C@@H](NC(=O)OC)C(C)(C)C)C(C)(C)C [Atazanavir sulfate]	0.699
Cc1cc(C2CCCCC2)n(O)c(=O)c1 [Ciclopirox]	1.42

SMILES	AQP5-HiBiT luminescence
CC(=O)N[C@H]1[C@H]([C@H](O)[C@H](O)CO)OC(C(=O)O)=C[C@@H]1NC(=N)N [Zanamivir]	0.642
CO/N=C(\C(=O)N[C@@H]1C(=O)N2C(C(=O)[O-])=C(C[N+]3(C)CCCC3)CS[C@H]12)c1csc(N)n1 [Cefepime Dihydrochloride Monohydrate]	1.02
CCOc1ccc2ccccc2c1C(=O)N[C@@H]1C(=O)N2[C@@H]1SC(C)(C)[C@@H]2C(=O)O [nafcillin sodium]	0.97
C[C@H]1O[C@H](O[C@H]2[C@H](O)[C@@H](O)[C@@H](O[C@H]3[C@H](O)[C@@H](O)C(O)O[C@@H]3CO)O[C@@H]2CO)[C@H](O)[C@@H](O)[C@@H]1N[C@H]1C=C(CO)[C@@H](O)[C@H](O)[C@H]1O (stereo not given in full) [Acarbose]	0.909
CCCCC[C@H](O)/C=C/[C@H]1[C@H](O)CC(=O)[C@@H]1CCCCCCC(=O)O [Alprostadil]	0.938
COc1nc2ccc(Br)cc2cc1[C@@H](c1ccccc1)[C@@](O)(CCN(C)C)c1cccc2ccccc12	1.02
Cc1c(OCC(F)(F)F)ccnc1C[S@@+]([O-])c1nc2ccccc2[nH]1 [R-(+)-Lansoprazole]	1.02
O=C(O)[C@@H](S)[C@@H](S)C(=O)O [Succimer]	0.639
CCOC(=O)C1=C(C)NC(C)=C(C(=O)OC)C1c1cccc(Cl)c1Cl (stereo not given) [Felodipine]	0.458
c1cc(CN2CCCNCCNCCCNCC2)ccc1CN1CCCNCCNCCCNCC1 [Plerixafor]	0.618
C[C@]12CC[C@@H]3c4ccc(O)cc4C[C@@H](CCCCCCCCC[S+]([O-])CCCC(F)(F)C(F)(F)F)[C@H]3[C@@H]1CC[C@@H]2O (stereo not given in full) [Fulvestrant]	1.51
CC1=NN(c2ccc(C)c(C)c2)C(=O)/C1=N\Nc1cccc(-c2cccc(C(=O)O)c2)c1O [Eltrombopag]	0.865
CN(C)CCc1c[nH]c2ccc(Cn3cncn3)cc12 [Rizatriptan benzoate]	0.597
NC(=O)c1cn(Cc2c(F)cccc2F)nn1 [Rufinamide]	0.674
CC1CNc2c(cccc2S(=O)(=O)N[C@@H](CCCNC(=N)N)C(=O)N2CC[C@@H](C)C[C@@H]2C(=O)O)C1 (stereo not given in full) [Argatroban]	0.822
OCc1ccccc1 [Benzyl alcohol]	0.738
CC[C@H](C)[C@H](N)C1=N[C@H](C(=O)N[C@@H](CC(C)C)C(=O)N[C@H](CCC(=O)[O-])C(=O)N[C@H](C(=O)N[C@H]2CCCCNC(=O)[C@H](CC(N)=O)NC(=O)[C@@H](CC(=O)[O-])NC(=O)[C@H](Cc3cnc[nH]3)NC(=O)[C@@H](Cc3ccccc3)NC(=O)[C@H]([C@@H](C)CC)NC(=O)[C@@H](CCCN)NC2=O)[C@@H](C)CC)CS1.[Zn+2] [Zinc bacitracin] ({Ileψ(thiazoline)Cys}-L[dE]IK[dOrn]I[dF]H[dD]N; lactam 4-C)	0.876
Clc1ccc(CCC(Cn2ccnc2)Sc2c(Cl)cccc2Cl)cc1 (stereo not given) [Butoconazole nitrate]	0.887
CC(C)(Sc1cc(C(C)(C)C)c(O)c(C(C)(C)C)c1)Sc1cc(C(C)(C)C)c(O)c(C(C)(C)C)c1 [Probucol]	1.04
Cc1onc(-c2ccccc2)c1C(=O)N[C@@H]1C(=O)N2[C@@H]1SC(C)(C)[C@@H]2C(=O)O [Oxacillin sodium]	0.953
CCN1CCN(C(=O)N[C@@H](C(=O)N[C@@H]2C(=O)N3C(C(=O)O)=C(CSc4nnnn4C)CS[C@H]23)c2ccc(O)cc2)C(=O)C1=O [Cefoperazone sodium]	1.17
